Test results reported in PubChem BioAssay (NCI).
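Tested at 5 concentrations; 48 h exposure; 96-well plates; endpoints linearly interpolated, else capped at highest concentration. At the GI50, growth is halved. At the TGI there is no net growth.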

System: NCI-H322M lung
Assay: NCI tumour cell line growth inhibition, 48 h

| Structure (SMILES) | GI50 | TGI |
| --- | --- | --- |
| CN(C)CCNc1ccc2ncc(C#Cc3cncc(C(=O)Nc4ccc(CN5CCN(C)CC5)c(C(F)(F)F)c4)c3)n2n1 | 1.31 µM | 4.26 µM |
| CN1C(=O)N(c2ccccc2)C2N=C(N/N=C/c3ccccc3)SC21 (centres undefined) | 5.88 µM | > 100 µM |
